About 200 (0.47%) of roughly 43,000 compounds were called active. Another 12% or so got no clear call; they are omitted. Calls come from the whole dose curve; as a rule, active = well fitted cell-killing curve with a large enough effect; inconclusive = small, poorly fitted or top-dose-only effect, or effect the other way; inactive = flat fitted curve, though single readings scatter. This is one part of the list.
Assay: Cell viability qHTS assay in S16 Pmp22-F2sN cells; note: nearly all actives have a fitted effect of over 65% in size
Settings: S16 Pmp22-F2sN Schwann cells (luciferase reporters placed in the Pmp22 gene) viability, CellTiter-Glo, 24 h; series mostly up to 57.5 µM; activity change, negative = cytotoxicity: at the top concentration
In short: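 CellTiter-Glo counter-screen, qHTS, 1536-well. Cells: S16(c9) Pmp22-F2sN, 500-1,000/well in DMEM + 10% FBS. Cpd 23 nL pin transfer, 24 h, 37C/5% CO2. Read: luminescence, CCD imager.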
% is set by controls: 0 for no effect and ±100 for the full control effect.

| Structure (SMILES) | activity change, negative = cytotoxicity |
| --- | --- |
| CCc1cc(C(=O)Nc2c(C)nn(Cc3ccccc3Cl)c2C)no1 | inactive: -29.2% |
| Cc1cc(C)c(NC(=O)CN2C(=O)c3cccnc3Sc3ccccc32)c(C)c1 | inactive: -6.53% |
| O=C(CCC(=O)N1CC2CCCN2c2ccccc21)NCc1ccc(F)cc1 (centres undefined) | inactive: 13.6% |
| CCOc1ccccc1CNC(=O)c1ccc(CS(=O)Cc2cccc(Cl)c2)o1 (centres undefined) | inactive: -0.941% |
| Cc1cccc(NC(=O)CSc2nnc(NC(=O)Nc3ccccc3)s2)c1C | inactive: -4.66% |
| CSc1ccc(C2C(C(=O)Nc3ccccc3)=C(C)Nc3nc4ccccc4n32)cc1 (centres undefined) | inactive: -2.04% |
| CCc1ccc(NC(=O)CC2C(=O)NCCN2C(=O)c2ccc(F)cc2)cc1 (centres undefined) | inactive: 19.4% |
| CCc1ccc(NC(=O)NCCc2c(C)nn(C)c2C)cc1 | inactive: -15.9% |
| COc1cccc(NC(=O)CSc2nnc(-c3cccc(OC)c3)o2)c1 | inactive: -7.64% |
| Cc1ccc(NC(=O)CSc2ncc(-c3ccccc3)[nH]2)cc1 | inactive: -5.77% |
| CSc1ccc(CNC(=O)Cn2nc(N3CCN(c4ccccc4)CC3)ccc2=O)cc1 | inactive: 17.8% |
| Cc1ccccc1CNC(=O)C(=O)NCC(c1ccco1)S(=O)(=O)c1cccs1 (centres undefined) | inactive: 3.33% |
| CCCCN(C)CCCNC(=O)C1CCN(S(=O)(=O)CCC)CC1 | inactive: -2.6% |
| Cc1oc2ncn(C)c(=O)c2c1C(=O)N1CCN(c2cccc(C(F)(F)F)c2)CC1 | inactive: -15.1% |
| Cc1oc(-c2cccc(Cl)c2)nc1CN1CCC(C(=O)NC(C)c2ccccc2)CC1 (centres undefined) | inactive: -9.63% |
| CCN(CC)c1ccc(CNCCCSc2nnnn2C)cc1 | inactive: 4.78% |
| COc1ccc(CNC(=O)c2cc(Nc3ccccc3C)nc3ccccc23)cc1 | inactive: 19.1% |
| CCN(c1ccccc1)S(=O)(=O)c1nnc(NC(=O)c2ccccc2OC)s1 | inactive: -0.405% |
| CCOCCc1nn2c(=O)cc(COC(=O)c3ccc(NC(=O)C4CCCCC4)cc3)nc2s1 | inactive: -24.2% |
| CCc1ccccc1NC(=O)CCCSc1nc(-c2ccco2)cc(C(F)(F)F)n1 | inactive: -1.88% |
| COc1ccc(NC(=O)C2=CC(c3ccco3)=NS(=O)(=O)N2C)cc1OC | inactive: 8.88% |
| CCCN(C(=O)c1cn(C)c(=O)c2cc(OC)c(OC)cc12)c1ccc(CC)cc1 | inactive: -15.2% |
| Cc1nn(-c2ccccc2)c(OC(=O)c2ccccc2Br)c1S(=O)(=O)c1ccccc1 | inactive: 1.99% |
| Cc1cc(NC(=O)c2ccc3c(c2)N(Cc2cccc(Cl)c2)C(=O)c2ccccc2S3(=O)=O)ccc1Br | inactive: 8.09% |
| O=C(CS(=O)(=O)c1cccc2nsnc12)N1CCN(c2ccccc2F)CC1 | inactive: -3.69% |

| Structure (SMILES) | activity change, negative = cytotoxicity |
| --- | --- |
| O=C(Nc1ccc(Cl)cc1)C1CCC(CNS(=O)(=O)c2ccc(Br)s2)CC1 (centres undefined) | inactive: 7.61% |
| O=c1c2cc3c(cc2nc2sc(Nc4ccccc4)nn12)OCO3 | inactive: 15% |
| COc1ccc(NC(=O)CN2CCN(CC(=O)Nc3ccccc3F)CC2)c(OC)c1 | inactive: 1.76% |
| CC1CCN(S(=O)(=O)c2ccc3c(c2)c(=O)c(C(=O)N2CCN(c4cccc(Cl)c4)CC2)cn3C)CC1 | inactive: 12.6% |
| CCOC(=O)c1c(C)oc2nc(C)nc(NCCc3ccc(OCC)c(OCC)c3)c12 | inactive: -5.91% |
| COC(=O)c1ccc(NC(=O)CSc2cn(CC(=O)N3CCCCC3)c3ccccc23)cc1 | inactive: 10.2% |
| COc1ccc(N2CCN(c3ncnc4c3cnn4-c3ccc(F)cc3)CC2)cc1 | inactive: 4.72% |
| COc1ccc(S(=O)(=O)c2c(Nc3cccc(C)c3C)sc(C(=O)c3ccccc3)c2N)cc1 | inactive: -21.8% |
| COc1ccc(-c2nc(SCC(=O)NC(C)CCc3ccccc3)n[nH]2)cc1 (centres undefined) | inactive: -21.6% |
| Cc1ccc(Nc2cc(C(=O)NCCc3ccccc3)c3ccccc3n2)c(C)c1 | inactive: 12.5% |
| CC1CCN(C(c2ccccc2)c2sc3nc(-c4ccco4)nn3c2O)CC1 (centres undefined) | inactive: 5.81% |
| COc1ccc(CNS(=O)(=O)c2cc3c(cc2Cl)N(C(C)=O)CCO3)cc1 | inactive: 8.82% |
| O=C(CSc1nc(-c2ccccc2)cn1-c1ccccc1F)Nc1ccc(F)cc1 | inactive: -5.58% |
| Cc1ccccc1Cn1c(COc2ccc(Cl)cc2)nc2ccccc21 | inactive: 28.3% |
| Cc1nc2ccc(S(=O)(=O)N(C)CC(=O)Nc3ccc(C(C)C)cc3)cc2s1 | inactive: -19.5% |
| COc1ccc(CNC(=O)C2CCN(c3nnc(-n4c(C)ccc4C)s3)CC2)c(OC)c1 | inactive: -17.4% |
| O=C(Nc1cccc(F)c1)C1CCCN(S(=O)(=O)c2cccc3cccnc23)C1 (centres undefined) | inactive: -29.8% |
| CCCCC(=O)Nc1c(C(=O)N2CCN(c3ccccc3F)CC2)oc2ccccc12 | inactive: -16.2% |
| CCCOC(=O)c1cccc(NC(=O)c2c(-c3ccccc3Cl)noc2C)c1 | inactive: -4.62% |
| O=C(Cn1nc(-c2ccc(Cl)cc2)c2ccccc2c1=O)Nc1cccc(Br)c1 | inactive: -0.268% |
| COc1cc2c(cc1OC)CN(C(=O)Nc1ccccc1)CC2 | inactive: -7.12% |
| CCS(=O)(=O)Nc1ccc(-c2cn3ccsc3n2)cc1 | inactive: 3.06% |
| COc1ccc(-c2nc3sc(CCNC(=O)c4ccco4)c(C)n3n2)cc1 | inactive: 2.34% |
| Cc1cccc(N2CCN(S(=O)(=O)c3c(C)nc4scc(C)n4c3=O)CC2)c1C | inactive: 2.62% |
